According to article PMC4336329 (PLoS ONE, 2015):
The campaign covered roughly 310,000 compounds. About 14,000 (4.5%) showed an effect of 50% or more. The effect is printed as a negative number. The list shows a part of the results.

Each compound was assayed against human ether-à-go-go-related gene (hERG) potassium channel (human, UniProt Q12809) (assay: primary screen, population patch clamp on CHO cells stably expressing hERG).
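Also: peak tail current of the secondary pulse compared with the same well before compound.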

Sequence of human ether-à-go-go-related gene (hERG) potassium channel (Q12809 whole entry, looked up): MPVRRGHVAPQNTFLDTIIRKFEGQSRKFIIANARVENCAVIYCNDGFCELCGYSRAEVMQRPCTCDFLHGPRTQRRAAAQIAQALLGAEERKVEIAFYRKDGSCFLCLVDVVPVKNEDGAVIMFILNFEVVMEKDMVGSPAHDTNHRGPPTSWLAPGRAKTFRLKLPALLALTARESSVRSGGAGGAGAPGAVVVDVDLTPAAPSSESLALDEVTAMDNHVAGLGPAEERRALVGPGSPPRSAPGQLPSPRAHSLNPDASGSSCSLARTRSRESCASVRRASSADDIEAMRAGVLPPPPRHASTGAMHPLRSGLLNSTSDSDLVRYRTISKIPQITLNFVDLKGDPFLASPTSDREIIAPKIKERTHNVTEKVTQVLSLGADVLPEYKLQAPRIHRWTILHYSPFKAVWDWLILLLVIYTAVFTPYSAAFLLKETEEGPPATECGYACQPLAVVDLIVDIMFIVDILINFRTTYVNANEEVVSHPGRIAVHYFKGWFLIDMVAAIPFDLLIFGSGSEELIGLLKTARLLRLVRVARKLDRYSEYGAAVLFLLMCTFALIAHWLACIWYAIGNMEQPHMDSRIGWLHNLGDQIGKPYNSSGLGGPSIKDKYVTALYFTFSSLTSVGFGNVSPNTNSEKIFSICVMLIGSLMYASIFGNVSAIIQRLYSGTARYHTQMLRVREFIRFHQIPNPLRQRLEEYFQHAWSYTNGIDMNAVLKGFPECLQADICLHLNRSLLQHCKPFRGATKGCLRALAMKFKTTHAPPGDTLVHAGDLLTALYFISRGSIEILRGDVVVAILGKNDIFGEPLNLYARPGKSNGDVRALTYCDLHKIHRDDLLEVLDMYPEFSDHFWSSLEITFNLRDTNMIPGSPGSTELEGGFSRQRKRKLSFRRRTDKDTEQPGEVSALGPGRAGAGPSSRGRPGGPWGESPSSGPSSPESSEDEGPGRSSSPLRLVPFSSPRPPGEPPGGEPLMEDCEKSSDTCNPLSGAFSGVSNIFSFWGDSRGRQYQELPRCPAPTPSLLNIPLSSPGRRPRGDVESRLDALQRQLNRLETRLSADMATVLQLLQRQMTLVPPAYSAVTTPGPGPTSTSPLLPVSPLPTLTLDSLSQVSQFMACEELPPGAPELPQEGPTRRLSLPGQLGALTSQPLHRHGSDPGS

Compared with CC1CCN(CCCNC(=O)C2CCCN(c3ncnc4c3nc3n4CCCCC3)C2)CC1 (stereo not shown), CCCCC(=O)Nc1nnc(S(=O)(=O)N2CCCCCC2)s1 is higher in “hERG current change (%, negative = inhibition) at 10uM” value: -3.75% for the first, 15.7% for the second.

Going from COc1ccc(OC)c2[nH]c(=O)c(CCNC(=O)Cc3cccs3)cc12 to COc1ccc(OC)c2[nH]c(=O)c(CCNC(=O)C3CCCCC3)cc12, the “hERG current change (%, negative = inhibition) at 10uM” value falls from 5.17% to -18.4%.

Compared with CNC(=S)N(CCCn1ccnc1)Cc1c(F)cccc1Cl, COCCCNC(=O)CCc1nc(-c2ccccc2Cl)no1 is higher in “hERG current change (%, negative = inhibition) at 10uM” value: -9.51% for the first, 13.1% for the second.

First: CCC(C(=O)OCC(=O)N1CCN(c2ccc(OC)cc2)CC1)c1ccccc1 (stereo not shown)
Second: Cc1ccccc1C(=O)N1CCN(c2ccc(NC(=O)c3cccc(OC(C)C)c3)cc2)CC1
The “hERG current change (%, negative = inhibition) at 10uM” value of the first is lower: -33.8% for the first, -2.26% for the second.

Going from Cc1ccccc1NC(=O)NCC1CCN(C(=O)OC(C)(C)C)CC1 to COc1ccccc1NCCC(=O)OCC(=O)NC1CCCCC1, the “hERG current change (%, negative = inhibition) at 10uM” value rises from -19.6% to 6.11%.

Compared with O=C(C(Cc1ccccc1)N1C(=O)C2C3C=CC(C3)C2C1=O)N1CCCCC1 (stereo not shown), CN(C)C(=O)c1ccc(NC(=O)c2ccccc2SCC(=O)N2CCCC2)cc1 is lower in “hERG current change (%, negative = inhibition) at 10uM” value: 8.64% for the first, 2.81% for the second.

Going from CCCc1cc(=O)n2[nH]c(-c3ccc(OC)cc3)nc2n1 to CCOC(=O)N1CCC(NC(=O)CS(=O)(=O)Cc2nc(-c3ccc(OC)cc3)oc2C)CC1, the “hERG current change (%, negative = inhibition) at 10uM” value rises from -7.4% to 13.3%.

Going from COC1CC(C)NC(=S)N1 (stereo not shown) to CCN1CCCC(OC(=O)c2cc(-c3ccc(C)cc3)nc3ccccc23)C1.Cl (stereo not shown), the “hERG current change (%, negative = inhibition) at 10uM” value falls from 10.5% to -8.97%.

Compared with COc1cc(C2C(C(C)=O)=C(O)C(=O)N2CCc2c[nH]c3ccccc23)ccc1O (stereo not shown), CC(=O)NC(Cc1c[nH]c2ccccc12)C(=O)NCc1ccc2c(c1)OCO2 (stereo not shown) is lower in “hERG current change (%, negative = inhibition) at 10uM” value: -0.455% for the first, -11.1% for the second.

Compared with O=[N+]([O-])c1ccccc1-c1cc(-c2ccccc2O)n[nH]1, O=c1oc2ccccc2c(NCCc2ccccc2)c1[N+](=O)[O-] is lower in “hERG current change (%, negative = inhibition) at 10uM” value: 9.44% for the first, -3.6% for the second.

First: N#Cc1ccc(NC(=O)COC(=O)C2Cc3ccccc3CN2C(=O)c2ccccc2)cc1 (stereo not shown)
Second: N#CCCN(C(=O)COC(=O)c1cccc(S(=O)(=O)Nc2ccc([N+](=O)[O-])cc2)c1)c1ccccc1
The “hERG current change (%, negative = inhibition) at 10uM” value of the first is lower: -0.536% for the first, 7.52% for the second.

First: COc1ccccc1-c1nnc(SCC(=O)Nc2ccc(S(N)(=O)=O)cc2)n1C
Second: CCN(c1ccccc1)S(=O)(=O)c1ccc(OC)c(NC(=O)Cc2ccccc2OC)c1
The “hERG current change (%, negative = inhibition) at 10uM” value of the first is higher: -2.91% for the first, -7.96% for the second.

Compared with Cc1ccc(NC(=O)CSCC(=O)Nc2cc(C(F)(F)F)ccc2N2CCOCC2)cc1, COc1ccc(NC(=S)N2CCN(Cc3ccc(C)cc3)CC2)cc1 is lower in “hERG current change (%, negative = inhibition) at 10uM” value: -26.4% for the first, -31.8% for the second.

Compared with CC(C)CCNC(=O)[C@H](Cc1ccccc1)N1Cc2ccccc2C1=O, Cc1ccccc1Cn1cc(NC(=O)COc2ccccc2)cn1 is higher in “hERG current change (%, negative = inhibition) at 10uM” value: -11.6% for the first, -4.38% for the second.

Going from CCOc1ccc(N(CC(=O)NCC2CCCO2)S(=O)(=O)c2ccc(Cl)cc2)cc1 (stereo not shown) to CCOc1ccc(S(=O)(=O)N2CCN(Cc3ccco3)CC2)cc1, the “hERG current change (%, negative = inhibition) at 10uM” value rises from -13.1% to 4.27%.

Compared with CC(=O)Nc1ccc(O)cc1, Cc1cc(C(=O)NC(C)c2ccncc2)cs1 (stereo not shown) is lower in “hERG current change (%, negative = inhibition) at 10uM” value: 16.4% for the first, -6.54% for the second.

Compared with O=C(O)CCSc1nnc(-c2ccc3c(c2)OCO3)o1, O=C(c1cccs1)N1CCC(C(=O)N2CCN(Cc3ccc4c(c3)OCO4)CC2)CC1 is lower in “hERG current change (%, negative = inhibition) at 10uM” value: -2.42% for the first, -59.9% for the second.

Compared with Cc1cc(C)nc(N/N=C/c2cccc3ccccc23)n1, O=C(O)C(=O)/C(=C\c1cccc2ccccc12)c1ccc2ccccc2n1 is higher in “hERG current change (%, negative = inhibition) at 10uM” value: 5.46% for the first, 17.6% for the second.

First: O=C(c1ccco1)n1nc(NCc2ccccc2)nc1NCc1ccccc1
Second: O=C(CSc1nnc(CCCO)n1-c1ccccc1)NCCc1ccccc1
The “hERG current change (%, negative = inhibition) at 10uM” value of the first is higher: 1.76% for the first, -10.2% for the second.

First: Cc1cc(Cc2ccc(N)c(C)c2)ccc1N
Second: Nc1nnc(-c2ccc(Cl)cc2)s1
The “hERG current change (%, negative = inhibition) at 10uM” value of the first is lower: 12% for the first, 15% for the second.

Compared with Cc1cc(=O)nc2c3ccccc3n(C(C)C(=O)Nc3cc(F)ccc3F)n12 (stereo not shown), Cc1ccc(S(=O)(=O)N2CCN(C(=O)c3c(C)nn(-c4ccccc4)c3Cl)CC2)cc1 is lower in “hERG current change (%, negative = inhibition) at 10uM” value: -6.9% for the first, -28.8% for the second.

Compared with O=C(c1cc2ccccc2o1)N1CCN=C1SCc1cccnc1, Cc1ccc(C2CC(=O)c3cnc(N4CCN(c5ccccc5)CC4)nc3C2)cc1 (stereo not shown) is higher in “hERG current change (%, negative = inhibition) at 10uM” value: 2.36% for the first, 2.6% for the second.

Compared with Cc1cc(=O)[nH]c(SCC(=O)Nc2cc(S(=O)(=O)N(C)C)ccc2Cl)n1, Cc1cccc(C)c1NC(=O)Cn1cnc2c(=O)n(C)c(=O)n(C)c21 is lower in “hERG current change (%, negative = inhibition) at 10uM” value: 28.7% for the first, 9.06% for the second.

First: COc1cccc(CN2CCN(Cc3cc(OC)c(OC)c(OC)c3)CC2)c1OC.O=C(O)C(=O)O
Second: CC(=O)c1ccc(S(=O)(=O)N2CCN(C(=O)CSc3ccc(F)cc3)CC2)cc1
The “hERG current change (%, negative = inhibition) at 10uM” value of the first is lower: -8.03% for the first, 11.7% for the second.

First: Oc1ccc(C(=S)N2CCCCC2)cc1Cl
Second: O=C(c1cccc(C(F)(F)F)c1)N(c1ccccn1)C1CCCCC1
The “hERG current change (%, negative = inhibition) at 10uM” value of the first is lower: -13.7% for the first, 2.35% for the second.

Going from O=C1CC(Cc2ccc(Cl)cc2)C(=O)N1c1ccncc1 (stereo not shown) to O=C(OCC1OC(n2ncc(=O)[nH]c2=O)C(OC(=O)c2ccccc2)C1OC(=O)c1ccccc1)c1ccccc1 (stereo not shown), the “hERG current change (%, negative = inhibition) at 10uM” value rises from -10.1% to 14.6%.

First: COc1ccc(S(=O)(=O)N2CCN(CC(=O)NCC3(N4CCOCC4)CCCCC3)CC2)cc1
Second: Cc1nc2ccc(NC(=O)c3cc(S(=O)(=O)N4CCOCC4)ccc3C)cc2s1
The “hERG current change (%, negative = inhibition) at 10uM” value of the first is lower: -25.3% for the first, -0.181% for the second.

For O=C(N=C1SC2CS(=O)(=O)CC2N1CCc1ccccc1)C1CC1 (stereo not shown), the “hERG current change (%, negative = inhibition) at 10uM” value was 2.56%.
